PubChem BioAssay AID1030 (National Center for Advancing Translational Sciences (NCATS), 2008)
In all, about 220,000 compounds went through this assay and about 16,000 (7.3%) were called active. The inconclusive results got no clear call from the source; some entries with a clear call stand among them for comparison. Calls follow the shape of the dose curve; as a rule, active = well fitted inhibition curve with a large enough effect (not every such curve was filed as active); inconclusive = small, poorly fitted or top-dose-only effect, or another doubt; inactive = no such curve, though single readings can be large or run the other way. Where the call is inconclusive, the potency comes from a doubtful curve fit.

biological target: Aldehyde dehydrogenase 1A1 (Homo sapiens) (UniProt P00352); assay: qHTS Assay for Inhibitors of Aldehyde Dehydrogenase 1 (ALDH1A1); details: Purified ALDH1A1, NADH fluorescence, propionaldehyde substrate; series mostly up to 75.3 µM; activity, negative = inhibition: at the top concentration;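 as to activity, negative = inhibition: plate controls were no enzyme wells and a reference inhibitor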
Potency is read from the fitted curve at half-maximal effect; tags tell the direction and shape of the fitted curve.

UniProt P00352, sequence (P00352 whole entry, looked up): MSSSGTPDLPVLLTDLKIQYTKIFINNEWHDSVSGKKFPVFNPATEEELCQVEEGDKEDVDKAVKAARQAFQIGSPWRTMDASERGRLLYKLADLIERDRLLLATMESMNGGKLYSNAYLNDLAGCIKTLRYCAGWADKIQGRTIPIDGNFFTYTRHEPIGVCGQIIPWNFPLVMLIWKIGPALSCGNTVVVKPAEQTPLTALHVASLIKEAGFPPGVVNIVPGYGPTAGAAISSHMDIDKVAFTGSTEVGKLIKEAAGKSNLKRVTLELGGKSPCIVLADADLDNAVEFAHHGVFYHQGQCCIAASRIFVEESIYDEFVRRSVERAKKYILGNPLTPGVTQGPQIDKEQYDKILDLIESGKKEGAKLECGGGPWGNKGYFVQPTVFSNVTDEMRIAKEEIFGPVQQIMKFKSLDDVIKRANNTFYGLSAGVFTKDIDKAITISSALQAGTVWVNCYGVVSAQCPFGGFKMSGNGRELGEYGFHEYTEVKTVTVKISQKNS

Potency, active:
Cc1oc(-c2ccccc2F)nc1CS(=O)CC(=O)NCc1ccc2c(c1)OCO2 (stereo not given) 31.6 µM
C=CCn1c(COC)nnc1SCC(=O)c1ccc(F)cc1 11.2 µM
O=C(CSc1nncc2ccccc12)N1CCCCC1 10 µM
COc1cc(/C=C/C(=O)c2ccc(C)cc2)ccc1OCC#N 12.6 µM
Cc1ccc(/C=N/N2CCN(Cc3ccc(Cl)cc3)CC2)o1 7.94 µM
O=C(CCl)NCCCCCCCCCNC(=O)CCl 0.178 µM
COc1cc(-c2nnc(SCC(=O)c3ccc(C)cc3)o2)cc(OC)c1OC 28.2 µM

Potency, inconclusive:
COc1ccccc1Oc1ccc2c(c1)C(=O)N(c1cccc(O)c1)C2=O 44.7 µM [inhibitor, single point]
COc1cccc(S(=O)(=O)NCc2ccc3c(c2)OCO3)c1 15.8 µM [inhibitor, partial curve]
COC(=O)c1ccccc1NC(=O)Nc1ccc(Cl)cn1 35.5 µM [inhibitor, single point]
CCCCOc1cccc(C(=O)NC(=S)Nc2ccc(Cl)c(C(=O)O)c2)c1 31.6 µM [inhibitor, single point]
COC(=O)c1ccc(Sc2ccc(F)cc2)c(N)c1 31.6 µM [inhibitor, partial curve]
CC(C)=NN/C(N)=N/C(=S)Nc1ccc(C)cc1 39.8 µM [inhibitor, single point]
O=C(NCCO)Nc1ccc2nsnc2c1 39.8 µM [inhibitor, single point]
CC1CCN(C(=O)CCCOc2cc(=O)n(C)c3ccccc23)CC1 20 µM [inhibitor, single point]
Cc1cccc(CS(=O)(=O)Cc2ccc(C(=O)NCCCN3CCOCC3)o2)c1 35.5 µM [inhibitor, single point]
CCOC(=O)c1[nH]c2ccc(F)cc2c1NC(=O)CCN1CCOCC1 35.5 µM [inhibitor, single point]
CC1CCN(c2nc3c(c(=O)[nH]c(=O)n3C)n2Cc2ccccc2Cl)CC1 11.2 µM [inhibitor, partial curve]
CC1CC(C)CN(C(=O)CSc2nc3ccsc3c(=O)n2Cc2ccccn2)C1 (stereo not given) 25.1 µM [inhibitor, single point]
CCNc1nc(NCC)nc(N(C#N)CCOc2ccccc2)n1 22.4 µM [inhibitor, single point]
CC(=O)Nc1cccc(-c2csc(NCc3ccccc3)n2)c1 39.8 µM [inhibitor, single point]
CCc1ccc(CN2CCN(S(=O)(=O)Cc3ccccc3)CC2)cc1 35.5 µM [inhibitor, single point]
CC1Cc2ccccc2N1C(=O)CN1CCc2ccccc2C1 (stereo not given) 15.8 µM [inhibitor, partial curve]
O=C(N/N=C/c1ccc(N2CCOCC2)cc1)C1CC1 31.6 µM [inhibitor, partial curve]
CC(C)CCNC(=O)c1ccc2c(c1)ncn2C1CCCC1 39.8 µM [inhibitor, single point]
COc1ccc(-n2nc(N)c(C(N)=O)n2)cc1 28.2 µM [inhibitor, partial curve]
Cc1ccn2cc(CCNS(=O)(=O)c3ccc4c(c3)CCCC4)nc2c1 5.62 µM [inhibitor, single point]
Cc1ccc(S(=O)(=O)c2cc3ccccc3oc2=Nc2ccc3c(c2)OCO3)cc1 11.2 µM [inhibitor, partial curve]
CC(C)c1ccc(-c2noc(C3CCCN(C(=O)c4ccc(F)cc4F)C3)n2)cc1 (stereo not given) 20 µM [inhibitor, single point]
Nc1cc2nc[nH]c2cc1N 39.8 µM [inhibitor, single point]
CCN1CCCC1CNC(=O)CS(=O)(=O)Cc1nc(-c2ccccc2C)oc1C (stereo not given) 39.8 µM [inhibitor, single point]
COc1cc(CN2CCCC(CO)(Cc3cccc(Cl)c3)C2)cc2c1OCO2 (stereo not given) 8.91 µM [inhibitor, full curve]
S=C(Nc1ccccc1)Nc1ccc(Br)cc1 35.5 µM [inhibitor, single point]
CCN(CC)S(=O)(=O)c1ccc(-c2nnc(SCC(=O)Nc3nnc(C)s3)n2CC)cc1 17.8 µM [inhibitor, partial curve]
COc1ccc(Br)cc1S(=O)(=O)N1CC(C)OC(C)C1 (stereo not given) 35.5 µM [inhibitor, single point]
CC1CCCCN1S(=O)(=O)c1ccc(S(=O)(=O)NCCc2ccncc2)cc1 (stereo not given) 28.2 µM [inhibitor, single point]
CCCN(CCC)S(=O)(=O)c1ccc(C(=O)Nc2cc3oc4ccccc4c3cc2OC)cc1 39.8 µM [inhibitor, single point]
CCCn1nnc(NC(=O)c2ccc(OCC)c(Cl)c2)n1 20 µM [inhibitor, partial curve]
Cc1ccsc1/C=N/NC(=O)Cn1cnc2ccccc21 31.6 µM [inhibitor, single point]
CC(C)(C)c1ccc(NC(=O)COC(=O)CCc2nc3ccccc3c(=O)[nH]2)cc1 23.8 µM [inhibitor, partial curve]

Potency, inactive:
COc1ccc(C(=O)C[n+]2cc(-c3ccc(OC)cc3)n3c2CCCC3)cc1

activity, negative = inhibition, inactive:
COC(=O)c1cc(NC(=O)c2ccco2)ccc1N1CCOCC1 -6.16%
Cc1cccn2c(CN3CCCC(c4ccccc4)C3)c(C(=O)N3CCOCC3)nc12 (stereo not given) 0.201%
Cc1ccc(SCCNC(=O)/C=C/c2ccc(Cl)cc2)cc1 -14.3%
Cc1ccc(NC(=O)C2CCCN2S(=O)(=O)c2ccc3c(c2)n(C)c(=O)c(=O)n3C)cc1C (stereo not given) -4.54%
